# Over roughly 2,900 compounds, “IRF Lucia reporter activity, fold change vs agonist alone” has its median near 0.9; the highest 2% begin near 2.8. The list shows a part of the results.
# Assays:
# RAW-Dual [1] = assay: IRF Lucia reporter activity, fold change vs agonist alone; cytotoxicity flag (confluency mask): not cytotoxic; higher = enhanced IRF activity
# Procedure, shortened: (§1)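 Supernatant from RAW-Dual macrophages was read after 20 hours for IRF by QuantiLuc luminescence and for NF-κB by QuantiBlue absorbance at 620 nm. The cells (50,000 cells/well in DMEM, 384-well plates, 37 °C, 5% CO2) had received 50 nL of library stock by pin tool and, 1 h later, a PRR agonist. Reporter activity is expressed relative to agonist-alone wells as fold change, and wells were flagged cytotoxic if IncuCyte confluency was under 70% of agonist controls in both mask sets.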
# RAW-Dual [2] = assay: IRF Lucia reporter activity, fold change vs agonist alone; higher = enhanced IRF activity; conditions: agonist: MPLA (TLR4) […]
# Procedure, shortened: as §1
# RAW-Dual [3] = assay: IRF Lucia reporter activity, fold change vs agonist alone; cytotoxicity flag (confluency mask): cytotoxic (confluency <70% of control); higher = enhanced IRF activity
# Procedure, shortened: as §1
# [4] = agonist: 3'3'-cGAMP (STING) 10 ug/mL
# [5] = library stock concentration (final ~1000-fold dilution): 2 mM, cytotoxicity flag (confluency mask): not cytotoxic
# [6] = library stock concentration (final ~1000-fold dilution): 10 mM, cytotoxicity flag (confluency mask): not cytotoxic
smiles,measurement,setting,value
CC(=O)N1CCN(c2ccc(OCC3COC(Cn4ccnc4)(c4ccc(Cl)cc4Cl)O3)cc2)CC1 (centres undefined) (library stock concentration (final ~1000-fold dilution): 2 mM),IRF Lucia reporter activity,RAW-Dual [1]; [4],1.1
same,IRF Lucia reporter activity,RAW-Dual [1]; agonist: LPS (TLR4) 0.1 ug/mL,0.93
CC(=O)N1CCN(c2ccc(OCC3COC(Cn4ccnc4)(c4ccc(Cl)cc4Cl)O3)cc2)CC1 (centres undefined),IRF Lucia reporter activity,RAW-Dual [2]; [5],1.28
CN(C)CCC=C1c2ccccc2CCc2ccccc21.Cl,IRF Lucia reporter activity,RAW-Dual [2]; [6],1.45
CN(C)CCC=C1c2ccccc2CCc2ccccc21.Cl (library stock concentration (final ~1000-fold dilution): 10 mM),IRF Lucia reporter activity,RAW-Dual [1]; [4],0.546
same,IRF Lucia reporter activity,RAW-Dual [1]; agonist: LPS (TLR4) 0.1 ug/mL,1.27
CC(C)c1cnn2c(NCc3ccccc3-n3cccn3)nc(OC3CCCNC3)nc12 (centres undefined) (library stock concentration (final ~1000-fold dilution): 10 mM),IRF Lucia reporter activity,RAW-Dual [3]; [4],0.00484
same,IRF Lucia reporter activity,RAW-Dual [3]; agonist: LPS (TLR4) 0.1 ug/mL,0.0088
CNc1ncc2cc(-c3cc(NC(=O)NCCC(C)(C)C)c(F)cc3C)c(C)nc2n1 (library stock concentration (final ~1000-fold dilution): 2 mM),IRF Lucia reporter activity,RAW-Dual [1]; [4],0.83
same,IRF Lucia reporter activity,RAW-Dual [1]; agonist: LPS (TLR4) 0.1 ug/mL,0.521
CC1(C)SC2C(NC(=O)C(N)c3ccccc3)C(=O)N2C1C(=O)OCOC(=O)C1N2C(=O)CC2S(=O)(=O)C1(C)C (centres undefined) (library stock concentration (final ~1000-fold dilution): 10 mM),IRF Lucia reporter activity,RAW-Dual [1]; [4],1.01
same,IRF Lucia reporter activity,RAW-Dual [1]; agonist: LPS (TLR4) 0.1 ug/mL,1.41
CC1(C)SC2C(NC(=O)C(N)c3ccccc3)C(=O)N2C1C(=O)OCOC(=O)C1N2C(=O)CC2S(=O)(=O)C1(C)C (centres undefined),IRF Lucia reporter activity,RAW-Dual [2]; [6],1.08
C=CC(=O)N1CC(Nc2ncnc3[nH]ccc23)CCC1C (centres undefined) (library stock concentration (final ~1000-fold dilution): 10 mM),IRF Lucia reporter activity,RAW-Dual [1]; [4],0.607
same,IRF Lucia reporter activity,RAW-Dual [1]; agonist: LPS (TLR4) 0.1 ug/mL,0.815
COc1ccc2cccc(CCNC(C)=O)c2c1 (library stock concentration (final ~1000-fold dilution): 10 mM),IRF Lucia reporter activity,RAW-Dual [1]; [4],0.874
same,IRF Lucia reporter activity,RAW-Dual [1]; agonist: LPS (TLR4) 0.1 ug/mL,1.06
COc1ccc2cccc(CCNC(C)=O)c2c1,IRF Lucia reporter activity,RAW-Dual [2]; [6],0.91
COc1cc(CCC(=O)CC(O)CCc2ccc(O)c(OC)c2)ccc1O (centres undefined) (library stock concentration (final ~1000-fold dilution): 10 mM),IRF Lucia reporter activity,RAW-Dual [1]; [4],0.72
same,IRF Lucia reporter activity,RAW-Dual [1]; agonist: LPS (TLR4) 0.1 ug/mL,0.938
Cc1[nH]c(C=C2C(=O)Nc3ccc(F)cc32)c(C)c1C(=O)NCCN1CCCC1 (library stock concentration (final ~1000-fold dilution): 2 mM),IRF Lucia reporter activity,RAW-Dual [1]; [4],0.0313
same,IRF Lucia reporter activity,RAW-Dual [1]; agonist: LPS (TLR4) 0.1 ug/mL,0.194
Cc1[nH]c(C=C2C(=O)Nc3ccc(F)cc32)c(C)c1C(=O)NCCN1CCCC1,IRF Lucia reporter activity,RAW-Dual [2]; [5],0.869
Cl.Cl.Cn1cc(CNCC2CCN(c3ncc(C(=O)NO)cn3)CC2)c2ccccc21,IRF Lucia reporter activity,"RAW-Dual [2]; library stock concentration (final ~1000-fold dilution): 10 mM, cytotoxicity flag (confluency mask): cytotoxic (confluency <70% of control)",0.626
Cl.Cl.Cn1cc(CNCC2CCN(c3ncc(C(=O)NO)cn3)CC2)c2ccccc21 (library stock concentration (final ~1000-fold dilution): 10 mM),IRF Lucia reporter activity,RAW-Dual [3]; [4],0.0444
same,IRF Lucia reporter activity,RAW-Dual [3]; agonist: LPS (TLR4) 0.1 ug/mL,0.955
CCc1ccc(Cc2ccc3c(c2)C2(OC3)OC(CO)C(O)C(O)C2O)cc1.O (centres undefined) (library stock concentration (final ~1000-fold dilution): 10 mM),IRF Lucia reporter activity,RAW-Dual [1]; [4],1.17
same,IRF Lucia reporter activity,RAW-Dual [1]; agonist: LPS (TLR4) 0.1 ug/mL,1.15
Oc1ccc(Nc2nc(-c3ccc(Cl)cc3)cs2)cc1 (library stock concentration (final ~1000-fold dilution): 10 mM),IRF Lucia reporter activity,RAW-Dual [1]; [4],0.0079
same,IRF Lucia reporter activity,RAW-Dual [1]; agonist: LPS (TLR4) 0.1 ug/mL,0.288
Oc1ccc(Nc2nc(-c3ccc(Cl)cc3)cs2)cc1,IRF Lucia reporter activity,RAW-Dual [2]; [6],0.203
N#Cc1ccc2[nH]c(O)c(-c3ccc(CN4CCOCC4)cn3)c2c1,IRF Lucia reporter activity,RAW-Dual [2]; [6],1.01
N#Cc1ccc2[nH]c(O)c(-c3ccc(CN4CCOCC4)cn3)c2c1 (library stock concentration (final ~1000-fold dilution): 10 mM),IRF Lucia reporter activity,RAW-Dual [1]; [4],0.996
same,IRF Lucia reporter activity,RAW-Dual [1]; agonist: LPS (TLR4) 0.1 ug/mL,0.903
Nc1nc(NC2CC2)c2ncn(C3C=CC(CO)C3)c2n1.Nc1nc(NC2CC2)c2ncn(C3C=CC(CO)C3)c2n1.O=S(=O)(O)O (centres undefined) (library stock concentration (final ~1000-fold dilution): 10 mM water),IRF Lucia reporter activity,RAW-Dual [1]; [4],1.4
same,IRF Lucia reporter activity,RAW-Dual [1]; agonist: LPS (TLR4) 0.1 ug/mL,0.91
Nc1nc(NC2CC2)c2ncn(C3C=CC(CO)C3)c2n1.Nc1nc(NC2CC2)c2ncn(C3C=CC(CO)C3)c2n1.O=S(=O)(O)O (centres undefined),IRF Lucia reporter activity,"RAW-Dual [2]; library stock concentration (final ~1000-fold dilution): 10 mM water, cytotoxicity flag (confluency mask): not cytotoxic",1.44
CCNC1CN(CCCOC)S(=O)(=O)c2sc(S(N)(=O)=O)cc21 (centres undefined) (library stock concentration (final ~1000-fold dilution): 10 mM),IRF Lucia reporter activity,RAW-Dual [1]; [4],1.04
same,IRF Lucia reporter activity,RAW-Dual [1]; agonist: LPS (TLR4) 0.1 ug/mL,0.83
CCNC1CN(CCCOC)S(=O)(=O)c2sc(S(N)(=O)=O)cc21 (centres undefined),IRF Lucia reporter activity,RAW-Dual [2]; [6],0.969
CNC(=O)c1c(C)oc2cc(Oc3ncnc4cc(OC)c(OC)cc34)ccc12,IRF Lucia reporter activity,RAW-Dual [2]; [6],1.1
CNC(=O)c1c(C)oc2cc(Oc3ncnc4cc(OC)c(OC)cc34)ccc12 (library stock concentration (final ~1000-fold dilution): 10 mM),IRF Lucia reporter activity,RAW-Dual [1]; [4],1.02
same,IRF Lucia reporter activity,RAW-Dual [1]; agonist: LPS (TLR4) 0.1 ug/mL,1.07
COc1cc2ncnc(Nc3ccc(Cl)cc3F)c2cc1OC,IRF Lucia reporter activity,RAW-Dual [2]; [6],0.746
